Experimental data reported in the supplement of paper PMC7826260.
The list shows a part of the results. Cleavage of a single-stranded DNA pool by Rep nickase domains was read by sequencing (1 h at 37 °C, 3 µM enzyme); the outer parts of the 90-letter strands are left off. Numbers give uncut DNA relative to the enzyme-free pool, as log2; strong cutting gives strongly negative numbers. There is no active / inactive call. Counts are relative to all reads; where an enzyme cuts many sequences, the uncut ones exceed 0.

What was measured:
Experiment in all cases: uncleaved DNA left, log2 of reads against the no-enzyme library (log2 ratio); higher = less cleavage (more negative = more Rep cleavage of the k-mer); sequences stand for … in CTCGTCCG…ACCGGAGA
[1] = test system: T1, Rep nickase domain of Muscovy duck circovirus
T1 sequence (residues 1-111, tag not shown): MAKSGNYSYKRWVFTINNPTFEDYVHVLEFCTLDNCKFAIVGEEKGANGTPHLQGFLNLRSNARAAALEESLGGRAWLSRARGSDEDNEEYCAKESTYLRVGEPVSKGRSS
Method: (§1)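 A pool of 90-nt single-stranded DNAs with seven random bases just before the constant AC of the nick site (name = the seven bases) was cut by 3 µM recombinant His6-SUMO-tagged Rep nickase domain (300 nM DNA, 50 mM HEPES pH 8.0, 50 mM NaCl, 1 mM MnCl2, 1 h, 37 °C, three replicates). Uncut DNA was amplified and sequenced.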

[2] = test system: T2, Rep nickase domain of banana bunchy top virus
T2 sequence (residues 1-94, tag not shown): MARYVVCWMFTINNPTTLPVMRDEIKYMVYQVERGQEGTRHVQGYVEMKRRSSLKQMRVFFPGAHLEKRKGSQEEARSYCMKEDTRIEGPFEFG
Method: as §1

[3] = test system: T3, Rep nickase domain of cabbage leaf curl virus
T3 sequence (residues 1-116, tag not shown): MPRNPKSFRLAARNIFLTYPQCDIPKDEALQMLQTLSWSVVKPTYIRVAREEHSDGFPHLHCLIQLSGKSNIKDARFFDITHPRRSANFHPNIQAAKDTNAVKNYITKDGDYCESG
Method: as §1

[4] = test system: T4, Rep nickase domain of chickpea chlorotic dwarf virus
T4 sequence (residues 1-124, tag not shown): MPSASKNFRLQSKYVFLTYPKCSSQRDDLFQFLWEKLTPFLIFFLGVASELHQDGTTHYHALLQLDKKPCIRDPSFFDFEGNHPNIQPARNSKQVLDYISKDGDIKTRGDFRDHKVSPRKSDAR
Method: as §1

[5] = test system: T5, Rep nickase domain of faba bean necrotic yellows virus
T5 sequence (residues 1-98, tag not shown): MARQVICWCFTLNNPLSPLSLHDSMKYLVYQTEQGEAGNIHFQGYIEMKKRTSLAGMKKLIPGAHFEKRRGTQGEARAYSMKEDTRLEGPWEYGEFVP
Method: as §1

[6] = test system: T6, Rep nickase domain of maize striate mosaic virus
T6 sequence (residues 1-117, tag not shown): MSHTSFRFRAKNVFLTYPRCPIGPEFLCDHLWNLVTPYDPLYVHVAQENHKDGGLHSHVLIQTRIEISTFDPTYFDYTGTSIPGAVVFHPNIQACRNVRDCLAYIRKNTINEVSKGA
Method: as §1

[7] = test system: T7, Rep nickase domain of porcine circovirus 2
T7 sequence (residues 2-116, tag not shown): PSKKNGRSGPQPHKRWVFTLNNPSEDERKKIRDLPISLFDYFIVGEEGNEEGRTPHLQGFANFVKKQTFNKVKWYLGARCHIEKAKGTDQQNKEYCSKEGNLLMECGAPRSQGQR
Method: as §1

[8] = test system: T8, Rep nickase domain of tomato golden mosaic virus
T8 sequence (residues 1-124, tag not shown): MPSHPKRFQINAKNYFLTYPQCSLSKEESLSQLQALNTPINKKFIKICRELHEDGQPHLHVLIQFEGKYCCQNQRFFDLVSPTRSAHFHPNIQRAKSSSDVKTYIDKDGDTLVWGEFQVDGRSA
Method: as §1

[9] = test system: T9, Rep nickase domain of tomato yellow leaf curl virus
T9 sequence (residues 1-136, tag not shown): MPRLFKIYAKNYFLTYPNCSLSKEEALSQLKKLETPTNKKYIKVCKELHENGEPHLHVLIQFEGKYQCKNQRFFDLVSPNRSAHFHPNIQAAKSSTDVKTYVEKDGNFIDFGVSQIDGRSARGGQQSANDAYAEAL
Method: as §1

[10] = test system: T10, Rep nickase domain of wheat dwarf virus
T10 sequence (residues 1-137, tag not shown): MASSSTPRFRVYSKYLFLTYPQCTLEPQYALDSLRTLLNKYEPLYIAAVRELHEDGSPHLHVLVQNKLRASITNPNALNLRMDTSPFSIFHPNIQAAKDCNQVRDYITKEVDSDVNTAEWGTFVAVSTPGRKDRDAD
Method: as §1

Sequence	uncleaved DNA left (log2) [1]	uncleaved DNA left (log2) [2]	uncleaved DNA left (log2) [3]	uncleaved DNA left (log2) [4]	uncleaved DNA left (log2) [5]	uncleaved DNA left (log2) [6]	uncleaved DNA left (log2) [7]	uncleaved DNA left (log2) [8]	uncleaved DNA left (log2) [9]	uncleaved DNA left (log2) [10]
CCCCAAG	-0.254	-0.0196	-0.866	-0.319	-0.213	-1.18	-0.0965	-0.0989	0.0172	-0.111
TCCGCCC	-0.251	-0.116	0.0075	-0.389	-0.253	-0.354	-0.204	-0.294	-0.253	-0.184
TTCGTTT	0.00876	-0.0231	0.0158	-1.6	0.0785	-0.108	-0.106	-0.0103	0.0094	-0.0873
TTGCGTC	-0.103	-0.135	-0.927	0.2	-0.0733	-0.714	0.0364	-0.252	-0.116	-0.168
TAAACCT	-0.265	-0.119	-3.85	-3.32	-0.0933	-2.58	-1.86	-3.07	-0.0451	-3.57
TTTCTGT	-0.0291	-0.204	-0.1	-0.58	-0.121	-0.615	-0.214	-0.104	-0.203	-0.122
AGGGGAG	0.243	0.226	-0.0883	0.385	0.194	-0.32	0.242	0.236	0.014	-0.00727
TTAGAGG	0.0113	-0.15	0.388	1.12	-0.00588	1.27	0.0538	-0.022	-0.228	-0.0678
AGCATTC	0.000986	0.0469	-0.165	-0.125	-0.0479	-0.833	-0.235	-0.0619	-0.0147	-0.0383
AGAGGGT	0.0541	0.106	0.337	1.49	-0.0019	1.89	0.222	0.143	-0.0288	-0.0535
CCTCAGT	0.0599	-0.00664	0.0949	0.183	0.112	0.344	0.0758	-0.0291	0.0265	0.00229
CACCGTT	0.101	-0.131	-0.494	-2.4	-0.0343	-0.892	-2.57	-0.129	-0.0645	-0.133
TATCGTA	-0.0978	0.0575	-0.0619	-1.65	-0.0149	-0.833	-0.167	0.0567	0.00475	-0.0841
GGCTGCT	-0.183	-0.0228	0.0766	0.327	-0.00949	0.47	-1.6	0.0537	0.00805	0.0332
GAAACCT	-0.0962	0.00626	-0.516	-2.03	0.0226	0.604	-0.675	0.025	0.025	-0.0419
GATAACA	0.0126	0.178	0.0399	-1.09	0.028	0.73	0.125	-0.041	0.00429	0.05
CGATAAA	0.102	0.207	-0.0756	0.13	0.105	-0.254	0.245	0.12	0.0992	0.113
CTGCGCT	-0.135	-0.203	-0.825	-0.958	-0.132	-1.18	-0.0225	-0.236	-0.0618	-0.192
TGTACGT	0.0604	0.0414	0.228	0.3	0.0553	0.262	-0.161	-0.0891	0.107	0.0948
AAGACCT	0.132	0.033	0.0899	-0.453	-0.028	0.694	-3.46	-0.0992	0.0376	0.0984

Sequence	uncleaved DNA left (log2) [1]	uncleaved DNA left (log2) [2]	uncleaved DNA left (log2) [3]	uncleaved DNA left (log2) [4]	uncleaved DNA left (log2) [5]	uncleaved DNA left (log2) [6]	uncleaved DNA left (log2) [7]	uncleaved DNA left (log2) [8]	uncleaved DNA left (log2) [9]	uncleaved DNA left (log2) [10]
AAGCGGC	-0.0675	-0.103	-0.0723	0.27	-0.025	-0.0221	0.0922	0.102	-0.114	-0.0149
ACACCTA	-0.0578	-0.0173	-0.238	-1.04	0.0303	-0.527	-0.0273	-0.0524	-0.13	0.0188
TCGACCA	0.0777	0.0779	0.12	-0.0209	0.0831	0.119	-0.00434	-0.0229	0.134	0.136
AGTTAAA	0.0251	-0.0413	0.0692	0.272	0.0727	-0.193	-0.294	0.126	0.00807	0.173
GACTCCT	-0.706	-0.854	-0.0685	-2.29	-0.139	0.594	-2.82	-0.135	-0.134	0.0496
ATTGAGA	0.0878	-0.023	-0.435	-0.48	0.0678	-1.25	0.17	0.0413	0.0622	0.0994
GAACCGG	-0.0149	0.0404	0.549	1.51	0.0339	1.96	0.145	0.238	0.00916	0.115
CCTTTAG	0.117	0.112	-0.564	-0.128	0.0941	-1.19	0.216	-0.00784	0.114	0.0282
AATGTTC	0.00991	-0.0595	-0.0896	-1.87	-0.00164	-0.434	-0.0543	-0.0721	-0.0427	-0.0491
CATCGCT	0.119	0.0442	-0.354	-1.58	0.0683	-1.01	-0.146	-0.0232	0.0819	0.0123
CATTAGT	-3.61	-3.83	-0.968	-1.75	-0.267	-1.28	-3.61	-0.259	-0.0818	-0.218
ATATTAC	-3.15	0.0307	-1.8	-2.64	0.0991	-1.74	-3.01	-0.346	0.0816	-0.511
ATGAGTC	0.0343	-0.114	-0.108	-0.148	-0.0637	-0.789	0.0784	-0.0199	-0.0694	-0.0904
GTAGCGC	-0.0322	-0.00709	-0.706	-0.43	-0.0756	-0.739	0.0101	-0.206	-0.0953	-0.195
CCGGGTT	-0.123	-0.287	0.171	0.0935	-0.145	1.42	0.102	-0.0884	-0.296	-0.196
TCCTCGC	-0.0582	0.0171	-0.357	-0.634	-0.0467	-1.04	0.0375	0.0257	-0.0398	-0.211
TTTTGGG	0.104	0.102	-0.644	-0.602	0.0763	-0.966	0.127	0.0307	0.0201	-0.108
AGTTACT	-3.5	-2.56	-0.691	-2.53	-0.949	0.497	-4.3	-0.0983	-0.094	-0.345
TTCACAT	0.027	0.0538	0.403	-0.142	0.00375	0.537	0.0857	-0.0309	0.112	0.112
CGCTAAC	0.081	-0.09	-0.287	-1.1	0.0762	-0.496	0.0229	0.0261	0.00595	0.145

Sequence	uncleaved DNA left (log2) [1]	uncleaved DNA left (log2) [2]	uncleaved DNA left (log2) [3]	uncleaved DNA left (log2) [4]	uncleaved DNA left (log2) [5]	uncleaved DNA left (log2) [6]	uncleaved DNA left (log2) [7]	uncleaved DNA left (log2) [8]	uncleaved DNA left (log2) [9]	uncleaved DNA left (log2) [10]
TGTTTAC	0.122	0.0433	0.433	0.677	0.091	1.88	0.136	0.23	0.106	0.17
TTTTTTT	-2.68	-0.623	0.0608	-2	-0.03	-0.381	-3.02	-0.0815	0.0791	-0.373
GCGGTCG	0.0223	0.00989	-0.57	-0.172	-0.00391	-0.462	0.128	0.11	0.0505	-0.118
ATGTATG	0.0205	-0.0709	-0.449	-0.499	-0.0411	-1.12	0.00267	-0.0601	-0.186	-0.0609
CACCCCA	-0.296	-0.118	-0.227	-2.2	-0.135	-0.598	-0.625	-0.216	-0.0972	-0.0636
CGGCGTG	-0.0537	-0.171	-0.194	0.234	-0.0182	0.426	-0.0627	-0.0276	-0.181	-0.118
GAAAAGG	0.0819	0.0996	0.424	1.04	0.0218	0.817	0.243	0.128	0.0992	0.114
GCGGACT	-0.0629	-0.00196	0.603	1.83	-0.0578	2.18	0.163	-0.103	-0.0676	-0.0149
CTGCGCG	0.142	-0.105	-0.661	0.0299	0.0666	-0.845	0.187	0.0107	0.0398	-0.00873
GGTCAGG	0.155	0.216	0.549	1.35	-0.00393	1.74	0.194	0.0138	0.1	0.252
GGCTCGA	0.157	0.101	0.346	0.921	0.0827	1.21	0.15	0.141	0.132	0.0551
CTTACAA	0.00241	0.106	-0.148	-2.11	0.0487	-0.47	0.115	0.0357	0.0765	0.191
ACTTTAA	-0.106	-0.0126	-0.258	-0.436	0.0487	-0.721	0.118	0.0741	-0.0313	0.0471
CCTTCTG	0.0471	-0.046	-0.286	-0.327	0.176	-0.64	0.0242	-0.0546	0.0109	-0.104
TAAAATG	0.0925	0.0243	-1.32	-2.54	0.0271	-1.18	0.22	-0.0144	0.0625	-0.0708
TTCGTAA	0.0134	-0.155	0.00427	-0.225	0.0453	-0.214	-0.0417	0.0485	-0.0606	0.0862
TAGTCTC	-0.565	-0.889	-0.766	-1.09	-0.916	0.0429	-3.29	-0.282	-0.0791	-0.218
GGGGCTC	0.027	0.0278	0.751	1.88	-0.0742	2.23	0.14	0.004	0.0563	0.0612
TCTATAA	0.14	-0.00322	-0.0106	-0.066	0.0225	-0.336	0.0019	0.0478	-0.0543	-0.0674
CGAAATA	0.0426	-0.0444	-0.277	-1.08	0.0753	-0.549	-0.0707	-0.06	0.106	0.0782
